Where “and” joins values, the source holds several entries; their conditions need not be identical. Equal values may be shown once. Among all 48,000 compounds or so, about 1,200 (2.5%) were called active. Roughly 2% stayed inconclusive and do not appear here.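 How the source made its calls: active means activation of at least 60% and not above a set upper limit (about 1 call in 100 departs from these limits); inconclusive means activation of 40% to 60%, or above that upper limit; inactive means activation under 40%.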 Some of the results follow.
target: Probable G-protein coupled receptor 32 (Homo sapiens) (UniProt O75388); test: qHTS for Agonists of Human Resolvin D1 Receptor DRV1; details: CHO-K1 GPR32 beta-arrestin PathHunter luminescence, 90 min; at 76.9 µM; active compounds read high; zero percent set by DMSO-only wells; further: 0% is about no effect
Sequence of UniProt O75388 (O75388 whole entry, looked up): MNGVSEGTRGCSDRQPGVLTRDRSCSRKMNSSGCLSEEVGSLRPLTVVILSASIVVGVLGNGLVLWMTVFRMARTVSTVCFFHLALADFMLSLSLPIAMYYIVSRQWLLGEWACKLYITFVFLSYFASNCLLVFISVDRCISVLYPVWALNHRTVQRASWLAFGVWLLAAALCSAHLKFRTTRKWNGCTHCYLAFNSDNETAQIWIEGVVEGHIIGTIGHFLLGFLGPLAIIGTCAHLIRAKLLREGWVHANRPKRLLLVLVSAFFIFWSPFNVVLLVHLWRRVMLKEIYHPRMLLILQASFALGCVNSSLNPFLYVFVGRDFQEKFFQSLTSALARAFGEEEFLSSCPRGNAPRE
Summary of the method: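 Using DMSO wells as EC0, agonist-induced signal was taken as chemiluminescence from beta-Gal reconstituted upon beta-arrestin recruitment to GPR32 in CHO-K1 cells after 90 min compound treatment.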

activation, inactive:
Cc1cc(C)cc(NC(=O)Cn2nc(N3CCN(c4ccccc4)CC3)ccc2=O)c1 -9.2%
CC(=O)c1c(C)n(S(=O)(=O)c2ccc(Cl)cc2)c2ccc(NS(=O)(=O)c3ccc(Cl)cc3)cc12 -8.39%
COc1cc(CN(C(=O)c2ccccc2Br)c2ccccn2)cc(OC)c1OC -0.591%
COc1ccc(S(=O)(=O)NCCc2sc(-c3cccnc3)nc2C)cc1OC -3.59%
COc1ccc2c(c1)c(=O)c(S(=O)(=O)c1ccc(Cl)cc1)cn2Cc1cc(C)ccc1C -13.7%
Cc1ccc(NC(=O)CN2C(=O)C(c3ccc(C)cc3)=NC23CCCCCC3)cc1 -15.4%
Cc1ccc(C)c(N2CCN(C(=O)CCS(=O)(=O)c3ccc4c(c3)oc(=O)n4C)CC2)c1 2.38%
CCN(CC)C(=O)c1sc2c(c1C)c(=O)n(CCc1ccccc1)c(=O)n2Cc1ccc(C)cc1 -18.3%
CCOc1cc2c(cc1OCC)C(CC(=O)OC)N(C(=O)Nc1cc(OC)ccc1OC)CC2 (stereo not given) -11.2%
CCOC(=O)c1ccc(N)cc1 -6.29%
CCCCNC(=O)c1cc(-c2cccnc2)nc2ccc(S(=O)(=O)NCCCC)cc12 -5.53%
CCN1CCSc2ccc(C(=O)NCc3ccc(F)cc3)cc21 4.06%
Cc1ccc(CNC(=O)CCSCc2cnn(-c3ccccc3)c2-n2cccc2)cc1 -9.2%
COc1ccc(CNC(=O)Cn2ncc3c(=O)oc4ccccc4c32)c(OC)c1 0.0161%
O=C(Cn1ncc2c3ccccc3n(Cc3ccccc3F)c2c1=O)N1CCCCCC1 -13.7%
CCN1CCN(c2nnc(-n3cccc3C(=O)NCc3ccccc3OC)s2)CC1 6.24%
Cc1ccc(NC(=O)N2CC3CCCN3c3ccccc32)cc1Cl (stereo not given) 8.63%
O=C(c1noc2c1CCCCC2)N1CCN(c2cccc(Cl)c2)CC1 -21.5%
Cc1ccccc1OC(=O)c1cc(-c2ccc3c(c2)OCCO3)on1 -6.59%
COc1ccc(NC(=O)C2CCN(C3=NS(=O)(=O)C(c4ccc(C)c(C)c4)=C3C)CC2)c(OC)c1 -13%
Cc1ccc(C)c(NC(=O)Cc2coc3cc(C)cc(C)c23)c1 3.63%
COc1cccc(CNC(=O)C2CCN(S(=O)(=O)c3c(C)noc3/C=C/c3cccs3)CC2)c1 -30.8%
O=C(NCCc1csc(-c2cccc(F)c2)n1)C(=O)Nc1cc(F)ccc1F -2.93%
C=CCn1c(=O)c2c(nc(-c3ccc(S(=O)(=O)O)cc3)n2C)n(C)c1=O -6.21%
COc1ccc(C)cc1NS(=O)(=O)c1cnc(N)nc1 -12.3%
O=C(c1cc2ccc3cccnc3c2[nH]1)N1CCCCC1 -15.5%
CCc1ccccc1NC(=O)Cn1nnc2sc3c(c2c1=O)CCC(C(C)(C)C)C3 (stereo not given) 2.6%
CCOC(=O)c1cc2c(=O)n3ccccc3nc2n(CC2CCCO2)c1=NC(=O)c1ccccc1Br (stereo not given) 11.9%
CCOC(=O)c1sc2ncn(CC(=O)Nc3cc(Cl)ccc3C)c(=O)c2c1C -8.94%
CC(=O)Nc1cccc(NC(=O)CSc2nccn2Cc2ccc3c(c2)OCO3)c1 -8.73%
CC(=O)c1ccc(N2CCN(C(=O)c3cc(S(=O)(=O)N4CCCCCC4)cn3C)CC2)cc1 4.56%
Cc1cccc(NC(=O)CSc2ccc(-c3sc(-c4ccccc4)nc3C)nn2)c1C -11.9%
Cc1cc(C(=O)Nc2c(C)cccc2C)n(-c2ccccc2)n1 -16.5%
CC(C)CCN(C(=O)Nc1ccc(Cl)c(Cl)c1)C1CCN(C(C)C)CC1 -19.7%
O=C(OCc1cc(=O)n2nc(-c3cccs3)sc2n1)c1cccc(F)c1 0.848%
COCCCNC(=O)c1ccc(Cn2c(SCc3ccc(F)cc3)nc3cccnc32)cc1 -7.72%
COc1ccc(CCNc2nc3c(-c4cccc(C(F)(F)F)c4)nnn3c3ccccc23)cc1OC -4.51%
Cc1ccc(CN2CCCn3nc(C(=O)NCc4ccc(N(C)C)cc4)cc3C2=O)cc1 -5.07%
Clc1ccc(-c2cc3ncc4c(n3n2)-c2ccccc2OC4)cc1 -6.55%
O=C(Nc1ccccc1-c1nc2ccccc2s1)c1ccc(F)cc1 -0.627%
CC1CCN(c2nc(-c3ccc(C(C)(C)C)cc3)nc3ccccc23)CC1 4.31%
O=C(CSc1nc2ccsc2c(=O)n1-c1ccc(Cl)cc1)NCc1ccc(Cl)cc1 -0.935%
CC(C)CNC(=O)Nc1cc(C(=O)NCc2ccc(C(C)C)cc2)ccc1N1CCCC1 -32.5%
CCOc1ccc(NC(=O)c2cc3cc(C)ccc3n2C)cc1 9.88%
CCOc1ccc(NC(=O)c2oc3ccccc3c2NC(=O)C(C)(C)C)cc1 -31.8%
COc1ccccc1NC(=O)CSc1oc(-c2ccco2)nc1S(=O)(=O)c1ccc(C)cc1 -21.1%
COc1ccc(CCNC(=O)c2c(O)nc3ccccn3c2=O)cc1OC -5.36%
O=C(CC1N=C2c3ccccc3N=C(SCC(=O)Nc3ccc(F)cc3)N2C1=O)NCc1ccco1 (stereo not given) -13.7%
CCOc1ccc2nc(N3CCCC(C(=O)Nc4ccc(OC)cc4)C3)sc2c1 (stereo not given) -5.12%
COc1cc(Nc2ncc3c(n2)CCN(Cc2ccc(OC(C)C)c(OC)c2)C3)cc(OC)c1 -4.34%
Cc1ccc(C(=O)Nc2nnc(S(=O)(=O)N(C)Cc3ccc(Cl)cc3)s2)cc1 0.742%
CCc1nn2c(=O)cc(COC(=O)c3ccc(NC(=O)COc4ccccc4C)cc3)nc2s1 -0.955%
COc1ccc(NC(=O)c2csnn2)cc1Cl -10.1%
Cc1ccc(Cc2cnc(NC(=O)c3ccc4c(c3)CC(c3ccccc3)OC4=O)s2)cc1 (stereo not given) 9.75%
O=C(NC1CC(=O)N(c2ccc(F)cc2)C1)C1CCCC1 (stereo not given) -5.41%
Cc1c(C(=O)Nc2ccc(F)cc2F)oc2c1-c1nn(Cc3c(F)cccc3Cl)cc1CC2 -21.2%
N#Cc1ccccc1NC(=O)CSc1nc(-c2ccccc2)cc(C(F)(F)F)c1C#N 11.4%
CCc1ccc(N2CC(c3nnc(NC(=O)c4ccco4)s3)CC2=O)cc1 (stereo not given) -1.39%
CCOC(=O)c1c(NC(=O)c2ccc(C)cc2)sc2c1CCCCC2 25.2%
COc1ccc(C)cc1NC(c1nnc(-c2ccccc2)o1)c1ccc(F)cc1Cl (stereo not given) -39.4%
CC(=O)c1ccc(S(=O)(=O)Nc2ccc(-c3cn4c(C)csc4n3)cc2)cc1 -25.5%
COc1cc(Cl)c(C)cc1NC(=O)c1cc(S(=O)(=O)N2CCCC2)ccc1F 0.851%
Cc1cc(NC(=O)c2ccccc2F)ccc1-c1nc2ccccc2s1 -0.713%
Cc1ccc(-n2cnc3cc(C(=O)NCCC4=CCCCC4)ccc32)c(C)c1 -2.42%
CCOC(=O)c1c(NC(=O)/C(C#N)=C/c2ccc(OC)cc2)sc2c1CCC2 -10.1%
CCOC(=O)Cc1ccc(NC(=O)N(Cc2ccc(OC)cc2)C2CCN(C(C)=O)CC2)cc1 -11.6%
COc1ccc(NC(=O)c2ccc3oc(=O)c(S(=O)(=O)c4ccc(F)cc4)cc3c2)cc1OC -2.36%
COc1ccc(C(=O)N2CC(=O)Nc3ccc(Br)cc3C2c2ccc(F)cc2)cc1OC (stereo not given) -13.2%
Cc1cccc(C)c1OCC(=O)N(Cc1ccccc1F)C1CCS(=O)(=O)C1 (stereo not given) -15%
CCc1ccc(NC(=O)c2sc(-n3nc(C)c(CCC(C)C)c3C)nc2C)cc1 -1.27%
CC(C)c1nn2c(=O)cc(COC(=O)C3CCCCC3)nc2s1 12.7%
Cc1ccc(S(=O)(=O)c2nnn3c2nc(NC2CCCCCC2)c2sccc23)cc1C -11.1%
CCCOc1cccc(C2c3c(oc4ccc(F)cc4c3=O)C(=O)N2CCCN2CCOCC2)c1 (stereo not given) -4.19%
Cc1ccc(CN(Cc2ccco2)C(=O)c2ccccc2Br)o1 -26.4%
CCCOc1ccc(-c2nonc2NC(=O)c2ccco2)cc1OCCC 7.29%
CC1CCN(C(=O)c2cc3c(=O)n(C)c4cc(Cl)ccc4c3s2)CC1 -8.13%
Cc1nc(-c2ccc(S(=O)(=O)N3CCN(c4cccc(C(F)(F)F)c4)CC3)cc2)co1 0.879%
COc1cc2c(CCNC(C)=O)c[nH]c2cc1Cl 2.49%
Cc1cc(Br)cc(C)c1NC(=O)c1sc2ncn(Cc3cccc(F)c3)c(=O)c2c1C -2.61%
CCNC(=O)c1ccc(C)c(-n2c(C)nc3cccnc32)c1 5.65%
Cc1ccc(NC(=O)Cn2c(=O)c3ccc(Cl)cc3n3nncc23)cc1 8.67%
Cc1ccc(S(=O)(=O)NC(=O)NN2CCCCCC2)cc1 8.06% and 1.98%
COc1cccc(-c2csc(-c3c(N)c(C(=O)c4ccc5c(c4)OCO5)n4ccccc34)n2)c1 -6.56%
CCOc1ccc(C2C(C(=O)Nc3ccccc3)=C(C)Nc3nc(-c4ccccc4)nn32)cc1OC (stereo not given) -8.85%
O=C(Cn1c(-c2cccs2)cc2ccccc21)N1CCN(c2ccc(Cl)cc2)CC1 -9.66%

— PubChem BioAssay AID1346428 (National Center for Advancing Translational Sciences (NCATS), 2018)
